Article PMC6919601, “Identification of Plasmodium dipeptidyl aminopeptidase allosteric inhibitors by high throughput screening” (PLoS ONE, 2019)
In all, about 110,000 compounds went through this assay and about 230 (0.21%) showed an effect of 50% or more. Some of the results follow.

Target: DPAP1 (Plasmodium falciparum, UniProt Q8IIJ9)
Assay: primary screen, percent inhibition; read by cleavage of a fluorogenic dipeptide substrate; higher = more effect of the substance
Design: species or system P. falciparum D10 trophozoite lysates; single well
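Further: 30 min substrate incubation versus DMSO and 10 µM JCP410 controls.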

Sequence of DPAP1 (Q8IIJ9 whole entry, looked up): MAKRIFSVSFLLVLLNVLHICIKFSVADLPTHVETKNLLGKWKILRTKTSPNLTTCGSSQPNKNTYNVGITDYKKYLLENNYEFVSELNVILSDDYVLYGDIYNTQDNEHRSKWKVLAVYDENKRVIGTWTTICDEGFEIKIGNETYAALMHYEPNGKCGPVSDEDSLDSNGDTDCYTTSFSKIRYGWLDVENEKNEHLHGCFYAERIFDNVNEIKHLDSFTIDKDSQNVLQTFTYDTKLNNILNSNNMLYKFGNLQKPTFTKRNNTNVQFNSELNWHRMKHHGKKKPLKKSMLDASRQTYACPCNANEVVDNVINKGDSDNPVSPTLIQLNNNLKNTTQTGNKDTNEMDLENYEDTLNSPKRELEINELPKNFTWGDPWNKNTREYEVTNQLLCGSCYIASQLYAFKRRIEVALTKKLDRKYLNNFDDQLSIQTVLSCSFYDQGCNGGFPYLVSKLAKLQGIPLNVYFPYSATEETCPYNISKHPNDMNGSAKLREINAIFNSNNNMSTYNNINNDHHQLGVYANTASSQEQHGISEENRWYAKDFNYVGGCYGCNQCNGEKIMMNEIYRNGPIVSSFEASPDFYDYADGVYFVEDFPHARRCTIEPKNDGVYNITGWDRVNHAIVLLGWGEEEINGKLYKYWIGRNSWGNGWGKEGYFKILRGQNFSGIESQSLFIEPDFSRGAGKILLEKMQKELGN

| SMILES | % Inhibition @ 10 uM |
| --- | --- |
| COc1ccc(C(=O)c2c(C)c3ccccc3n2C)cc1OC | 1.42% |
| CC1=C(C(=O)Nc2cccc(C)n2)C(c2ccc(Cl)cc2Cl)C2=C(O)CCCC2=N1 (stereo not drawn) | -0.305% |
| C#CC(C)(C)NCCC(=O)C1=CCCCC1 | 2.47% |
| O=C(Nc1ccccc1)N(CCCN1CCOCC1)Cc1ccccc1F | -4.12% |
| CC1=C(C(=O)Nc2cccc(C)c2)C(c2ccc(Cl)cc2Cl)NC(S)=N1 (stereo not drawn) | -1.56% |
| COc1ccc(S(=O)(=O)N2CCC(C)CC2)cc1 | 3.47% |
| COc1ccc2[nH]c(S(=O)(=O)C[C@@H](CCc3ccccc3)NC(=O)[C@H](CC(C)C)NC(=O)OCc3ccccc3)nc2c1 | -5.64% |
| Cc1nn(-c2ccccc2)c(O)c1/C=N/c1ccccc1Cl | 1.08% |
| C=Cc1cccc(C(=O)N[C@@H](CC(C)C)C(=O)NCC#N)c1 | 0.174% |
| COCCNC(=O)C1CCC(=O)N1Cc1ccc(F)cc1 (stereo not drawn) | -1.79% |
| FC(F)(F)COc1nc(NCc2ccccc2)nc(OCC(F)(F)F)n1 | 2.6% |
| O=c1[nH]c(/C=C/c2cc(Br)cc(Br)c2O)c([N+](=O)[O-])c(=O)[nH]1 | 2.26% |
| CCOC(=O)C(Cc1c[nH]c2ccccc12)NC(=O)C(C)(C)C (stereo not drawn) | -3.48% |
| Clc1ccc(-c2ccc(CN3CCSCC3)o2)cc1 | -3.15% |
| CCC(=O)NC(C)c1ccc(Br)cc1 (stereo not drawn) | 0.177% |
| C#CCN1C(=O)S/C(=C\c2ccc(OC)c(C)c2OC)C1=O | -2.76% |
| OCCOCCN1CCN(CC2CC=CCC2)CC1 (stereo not drawn) | -1.21% |
| Cc1nc(=O)c(-c2ccccc2)c(C)n1CCC12CC3CC(CC(C3)C1)C2 | 5.49% |
| Cc1nn(-c2ccc(Cl)cc2)c(O)c1/C=N/c1ccc(SC#N)cc1 | 2.36% |
| CN1C(=O)C(=Cc2ccc3c(c2)OCO3)C(=O)N(C)C1=O | 1.9% |
| COc1ccc(C2C(C#N)=C(N)N(c3ccc(Br)cc3F)C3=C2C(=O)CCC3)cc1O (stereo not drawn) | -2.54% |
| c1ccc(CCN2CCC(NC(Cc3ccccc3)c3ccccc3)CC2)cc1 (stereo not drawn) | -3.27% |
| COc1ccc(C(=O)/C=C/c2ccc(F)cc2)c(OC)c1 | -3.55% |
| COc1ccc(NC(=O)CC2SCCNC2=O)cc1 (stereo not drawn) | -7.75% |
| CCCNc1nc(N2CCOCC2)nc(N2CCOCC2)n1 | -1.48% |

| SMILES | % Inhibition @ 10 uM |
| --- | --- |
| COC(=O)C1=C(C)N=c2s/c(=C/c3ccc(OC)cc3OC)c(=O)n2C1c1cccs1 (stereo not drawn) | 6.51% |
| CCOc1cc(C2C3=C(O)CCCC3=Nc3ncnn32)ccc1OC(F)F (stereo not drawn) | -3.37% |
| CN(C)CCCOc1ccc2c(c1)Sc1ccccc1CC2=O | -4.12% |
| COc1ccccc1N1CCN(C(=O)c2cc(Cl)ccc2Cl)CC1 | 4.53% |
| CCn1cc(C(=O)OCC(=O)N2CCCC(C)C2)c(=O)c2ccc(C)nc21 (stereo not drawn) | 7.76% |
| C1CCCC(NCCN2CCOCC2)CC1 | -9.34% |
| COc1ccc(CCNc2nc3nc(C)c(C)nc3n2C)cc1OC | -7.61% |
| O=C(O)c1ccccc1C(=O)OCCO | 4.55% |
| COc1ccc(-c2noc(CN(C(=O)CN(C)S(=O)(=O)c3ccc(Cl)cc3)C(C)C)n2)cc1 | -1.22% |
| Cn1c2c(c(=O)n(C)c1=O)C(c1ccccc1Cl)C(C#N)=C(N)O2 (stereo not drawn) | -6.62% |
| Cc1ccc(-n2nc3c(=O)n(CCCC(=O)O)nc(C)c3c2C)cc1 | 1.63% |
| CC(C)OCCCNc1ncnc2onc(-c3ccc(F)cc3)c12 | -2.71% |
| CC(C)CC(NC(=O)c1ccc(NC(=O)N(C)[C@H]2CCN(Cc3ccccc3)C2)cc1)C(=O)NCC#N (stereo partly drawn) | -7.36% |
| CCOC(=O)c1c(C)[nH]c(C)c1S(=O)(=O)NCC(=O)Nc1nc(C)cs1 | -6.86% |
| CCCN(CCO)Cc1ccc(N(C)C)cc1 | -3.57% |
| CCCSC(=S)NC1CCS(=O)(=O)C1 (stereo not drawn) | 12% |
| Cc1c(C(=O)N2CCCN(Cc3ccccc3Cl)C2)sc2nc3n(c(=O)c12)CCCCC3 | -4.11% |
| COc1ccc(-c2cc(N)n(S(=O)(=O)c3ccc(Br)cc3)n2)cc1OC | 2.34% |
| CCOc1ccccc1C(=O)Nc1cccc(NC(=O)c2ccccc2OCC)n1 | -4.43% |
| O=C(CC(c1ccc(F)cc1)N1Cc2ccccc2C1=O)N1CCCCC1 (stereo not drawn) | -5.92% |
| Cc1ccccc1-n1nc2c(c1NC(=O)c1ccc(Cl)cc1Cl)CS(=O)(=O)C2 | -1.43% |
| CC(C)(C)c1cc(C(=O)Nc2cccc([N+](=O)[O-])c2)cc(C(C)(C)C)c1 | -1.45% |
| Cc1cc(C)n2nc(S(=O)(=O)N(C)Cc3ccccc3)nc2n1 | -1.24% |
| CCN(CC)C(=O)CN1C(=O)C(=O)c2ccccc21 | 7.87% |
| CC1=CC2=NC(=O)/C(=C\c3cccn3CCCOc3cc(C)c(Cl)c(C)c3)C(=N)N2O1 | -3.23% |

| SMILES | % Inhibition @ 10 uM |
| --- | --- |
| CC1=NOC(=O)/C1=C\c1cc(Br)c(O)c(Br)c1 | 0.487% |
| N#CC1=C(N)OC2=C(C(=O)CCC2)C1c1ccc(Br)cc1F (stereo not drawn) | 0.983% |
| Cc1ccccc1-c1nc(CS(=O)(=O)CC(=O)N2CCCCCC2)c(C)o1 | -3.7% |
| O=C(NC1CCCCCC1)c1ccc(COCC(F)(F)C(F)F)o1 | 6.03% |
| Cc1nn(C(C)C(=O)N2CCN(C3CCCCC3)CC2)c(=O)c2nn(-c3ccccc3)c(C)c12 (stereo not drawn) | -2.87% |
| COc1ccc(C(=O)Nc2ccc(C)c(C)c2)cc1Br | 0.145% |
| C=C(C)Cn1c(SCC(N)=O)nc2c(c1=O)C1(CCCC1)Cc1ccccc1-2 | 2.69% |
| COc1ccc(Cl)cc1NS(=O)(=O)c1c(C)cc(C)cc1C | 0.815% |
| Cn1cc(Br)c(C(=O)Nc2ccc3c(c2)OCCO3)n1 | -3.05% |
| CC(C)c1ccc(/C=C/C(=O)Nc2ccc(C(C)C)cc2)cc1 | -1.59% |
| COc1ccccc1N1CCN(C2CC(=O)N(c3ccccc3)C2=O)CC1 (stereo not drawn) | -2.32% |
| CCC(C)C(Nc1ncnc2sc3c(c12)CCC3)C(=O)O (stereo not drawn) | -1.47% |
| N=C1/C(=C/c2ccc3c(c2)OCO3)C(=O)N=C2SC=C(c3ccccc3)N12 | 1.52% |
| Cc1ccccc1NC1=C(C(=O)c2ccccc2)N(C)S(=O)(=O)c2ccccc21 | -4.49% |
| CN1C(=O)S/C(=C\c2ccc(OCc3ccc(F)cc3)c(Br)c2)C1=O | 2.17% |
| CN1C/C(=C\c2ccccc2F)C(=O)/C(=C/c2ccccc2F)C1 | 14.5% |
| CC(C(=O)O)N1C(=O)C2C3CC(C2C1=O)C1C(c2ccc(O)cc2)c2sc(O)nc2SC31 (stereo not drawn) | -7.27% |
| CC(CCCC(C)(C)O)NC1Cc2ccccc2C1 (stereo not drawn) | -1.81% |
| O=C(O)CCCCCN1C(=O)C2CCCCC2C1=O (stereo not drawn) | 1.02% |
| O=C(O)CC12CC3CC(C1)CC(n1ncc(NC4CCCCCCC4)c(Cl)c1=O)(C3)C2 | -8.58% |
| CCCCNc1ncnc2c1[nH]c1ccc(C)cc12 | -7.23% |
| Cc1nnc(NC(=O)COc2c(C)ccc(C)c2C)s1 | 6.76% |
| Cc1ccc(C(=O)Nc2sc3c(c2C(=O)N2CCOCC2)CCC(C)C3)cc1 (stereo not drawn) | 0.873% |
| O=C(c1cc(F)c(F)cc1Cl)n1cccn1 | -1.4% |
| CCN1CCCC1CNC(=O)c1ccc(F)cc1 (stereo not drawn) | 0.0538% |

| SMILES | % Inhibition @ 10 uM |
| --- | --- |
| CN1CCN(c2ccc(C(=O)N[C@@H](Cc3cc(Cl)c(O)c(Cl)c3)C(=O)NCC#N)cc2)CC1 | -3.25% |
| CCOc1ccc(S(=O)(=O)Nc2ccccc2C(=O)NC(C)C)cc1 | -1.24% |
| CCOC(=O)C1=C(C)N=c2s/c(=C/c3ccccc3)c(=O)n2C1c1ccc(C)cc1 (stereo not drawn) | 8.01% |
| CC(C)CCNC(=O)c1nnc(Cc2ccc(Cl)cc2)o1 | -5.29% |
| CCOC(=O)CN1CCN(c2ccccc2Cl)CC1 | -3.77% |
| CN1C(=O)C(=CNc2ccccc2Oc2ccccc2)C(=O)N(C)C1=O | 2.08% |
| Cc1nn(C)c2c1c(C(F)(F)F)cc(=O)n2CC(=O)NCc1ccco1 | 0.389% |
| NC(=S)N/N=C/C=C/c1ccccc1 | 4.35% |
| COc1cc(O)ccc1C1CC(=O)Nc2c1c(=O)nc(SCc1ccc(Cl)cc1)n2C (stereo not drawn) | 2.25% |
| O=S(=O)(c1ccc(Cl)cc1)c1nnn2c1nc(NCc1ccco1)c1sccc12 | 2.49% |
| COc1cc(CNC(=O)C2CCN(c3ncccn3)CC2)cc(OC)c1OC | 0.758% |
| Cc1csc(NC(=O)C(CC(C)C)N2Cc3ccccc3C2=O)n1 (stereo not drawn) | 4.84% |
| CN(Cc1ccccc1)C(=O)COc1ccc(S(=O)(=O)NC2CCCC2)cc1 | -3.45% |
| CCOc1ccc(C2(c3ccc(OCC)cc3)c3ccccc3Nc3ccccc32)cc1 | 1.2% |
| COc1ccccc1C(=O)CC#N | -2.88% |
| COc1cc(OC)cc(C(=O)N2CCOCC2)c1 | -2.78% |
| O=C(Cn1ccc2cc(S(=O)(=O)N3CCCC3)ccc21)NC1CCN(Cc2ccccc2)CC1 | 3.13% |
| Cc1ccc(C)c(S(=O)(=O)NC(C)C(=O)Nc2ccc(Br)cc2F)c1 (stereo not drawn) | 0.709% |
| CC(C)C1Cc2c(sc3nc(SCC(=O)Nc4ccccc4)nc(N)c23)CO1 (stereo not drawn) | 0.812% |
| CN1C(=O)NC(c2ccccc2)C2=C1CC(C)(C)CC2=O (stereo not drawn) | -4.49% |
| CCOC(=O)c1cc2c(=O)n3ccccc3nc2n(CC2CCCO2)/c1=N/C(=O)c1cccnc1 (stereo not drawn) | -1.3% |
| CS(=O)(=O)N1CCC(C(=O)Nc2ccc(F)c(Cl)c2)CC1 | 3.13% |
| O=[N+]([O-])c1ccc(N2CCN(Cc3cccc(C(F)(F)F)c3)CC2)cc1 | -0.0404% |
| O=S(=O)(NCc1nc2ccccc2[nH]1)c1ccc(Cl)c(Cl)c1 | -3.66% |
